# The whole screen tested about 150,000 compounds, of which about 540 (0.36%) showed an effect of 50% or more. This is one part of the list.
# Tested on: Plasmodium falciparum
# Assay: Primary screen in NF54 nanoGlo assay, in single point, at 2uM, 72h; a lower Z score goes with more inhibition
# Format: functional, Erythrocyte
# Conditions: timepoint 72 hour
Compound,% Inhibition,Z score
Cc1cc(=O)c2cccc(C(=O)N3CCNC(=O)[C@@H]3CCO)c2[nH]1,-3%,0.48
COC(=O)c1cc(OCC(=O)NC2CCCCC2)c2cc(F)ccc2n1,-11%,1.82
CC(C)(O)CCc1ccc(C(=O)N2C[C@@H]3[C@H](C2)[C@H]2CC[C@@H]3O2)cc1,10%,-1.35
Cc1noc(C2CCCN(C(=O)C3CC3c3ccccc3F)C2)n1 (stereo not given),0%,-0.01
C=CCc1c(NC(C)=O)cccc1OC,-38%,4.5
COc1ccc(-c2nn3c(N4CCN(CC=Cc5ccccc5)CC4)cc(C)nc3c2C)cc1OC,72%,-3.65
Cc1cc2c(cc1S(=O)(=O)N1CCOCC1)Oc1ncccc1C(=O)N2,-8%,1.17
C[C@H](NC(=O)Cc1cc(-c2ccco2)on1)c1ccccc1,-16%,1.91
Cc1cnn(C2CCCC2)c1NC(=O)NCCc1ncnn1C,1%,-0.26
Cc1ccc(C(=O)NC(C(=O)N(C)C)=C(Nc2ccccc2)Nc2ccccc2)cc1,-3%,0.62
CC1CCC(COC(=O)c2ccc3nccnc3c2)O1 (stereo not given),-6%,1.11
CCCCNC(=O)c1cncc(N(C)S(=O)(=O)c2ccc(C)cc2)c1,-10%,1.89
Cc1ccc(-c2nccc(Oc3cccc(C(=O)Nc4ccc(Br)cc4)c3)n2)cc1,-2%,0.31
CCC[C@H](C)NC(=O)COC(=O)c1nccnc1N,-5%,0.98
CCc1ccc([C@@H]2CC(=O)Nc3c2c(C)nn3-c2nc(C)cc(C)n2)s1,-13%,1.89
COC(=O)c1ccc2c(c1)N(C(=O)c1cc(C)ncn1)CCC2,-13%,1.32
Cc1nc(CNCC2(CC(C)C)CCC2)n(C)c1C,5%,-0.78
CCc1nc2ccccc2c(=O)n1NC(=O)c1c(O)nc2ccccc2c1O,-19%,2.88
NC(=O)N1CCC(N[C@H]2CCCCc3ccc(Cl)cc32)CC1,3%,-0.46
COCCOc1ncccc1CNCc1ccc2cn[nH]c2c1,-37%,4.36
Cc1cc(O)c2cc(C(=O)NCc3cccnc3)ccc2n1,6%,-0.73
Cc1nc(C)c(C(=O)N[C@@H]2C[C@H]3OCC[C@@H]23)o1,-12%,1.85
CCc1cc(NC(=O)c2ocnc2C2CC2)n(C)n1,-8%,1.52
O=C1[C@H]2CN(Cc3cccc(F)c3)C[C@H]2C(=O)N1Cc1ccc2c(c1)OCO2,-4%,0.51
COc1ccc(OC)c([C@H](C)NC(C)=O)c1,-5%,0.73
O=C(Nc1ccc(C(F)(F)F)cc1)N1CCc2nc(Cc3cccc(F)c3)nc(N3CCOCC3)c2C1,2%,-0.28
O=C(C[C@H]1COCCN1C(=O)N1CCc2ccccc21)c1ccco1,5%,-0.58
CN(C)S(=O)(=O)Nc1ccccc1C(N)=O,-8%,1.52

Compound,% Inhibition,Z score
N[C@](CO)(c1ccccc1)C(F)(F)F,14%,-1.38
N#CCCN(CCC(F)(F)F)C(=O)c1ccccc1O,5%,-0.41
CN(C)C(=O)c1csc(C(C)(C)C)n1,2%,-0.3
O=C(Nc1ncccc1O)C1CCCC(C(=O)Nc2ncccc2O)C1 (stereo not given),0%,0.02
CCOc1ccc(Cn2c(=O)c3sccc3n(CC(=O)NCc3ccccc3)c2=O)cc1,-5%,0.7
Cc1ccnc(OCC(=O)NC(C)C)n1,-5%,0.92
CC(C)c1nnc(Cn2ncn(C)c2=O)s1,-10%,1.36
Nc1nc(N2CCC(n3cc(C4CCCC4)nn3)CC2)c2cn[nH]c2n1,-5%,0.98
CN(C)CC(=O)N1CCN(C(=O)CC2CCCCC2)[C@@H]2CS(=O)(=O)C[C@@H]21,-2%,0.27
COCc1nc(CCCn2cncn2)n(-c2ccncc2)n1,-3%,0.36
CCC(Oc1ccc2c(c1)C(c1cccc(F)c1)N(C(=O)C(C)C)CC2)C(=O)NCC1CCCO1 (stereo not given),-9%,1.38
CCOc1ncccc1CN[C@@H](C)c1ccc2ccccc2n1,-11%,0.99
CCN(CC)c1nc(Nc2ccc(C)cc2)nc(N(CC)CC)n1,-6%,0.91
Cn1c(=O)n(C)c2cc(N3CCCC3)c(NC(=O)Nc3ccc(F)cc3)cc21,-13%,1.9
O=C1CN(CC(=O)N2CCCCC[C@H]2c2noc(-c3ccccc3)n2)C(=O)N1,-2%,0.42
CC(C)(C)CCNC(=O)[C@H]1CCCN(C2CCN(Cc3cccnc3)CC2)C1,-5%,0.85
Cc1csc(C2(NC(=O)Nc3cnc(C)nc3C3CC3)CCC2)n1,9%,-1.45
CN(CCc1ccccn1)C(=O)c1cc(NC(=O)c2ccccc2)cc2ncn(C3CCCC3)c12,-9%,1.14
COc1ccccc1CC(=O)N1Cc2cccnc2C1,10%,-1.18
C[C@H](O)CN(CC(F)F)C(=O)c1ccc(Cl)c2occc12,7%,-0.91
Cc1c[nH]c(CN2CCC3(CCC(=O)N(Cc4ccccc4)C3)CC2)n1,-4%,0.56
CC(C)(C)N1C(=O)c2ccc(-c3nc4ccccc4s3)cc2C1=O,9%,-1.12
COC(=O)[C@H](C)N(C(=O)c1scnc1C)C1CCC1,-9%,1.27
C#CCCCC(=O)Nc1ccc(C)c(N2CC[C@H](N(C)C)C2)c1,10%,-1.3
CC(C)(NC(=O)CCc1ccncc1)c1nnc(N)s1,-5%,0.91
CN(Cc1ccc(-n2cccn2)cc1)C(=O)C[C@H]1CCS(=O)(=O)C1,-2%,0.2
Cc1ccc(Br)c(C(=O)Nc2cncc3c2CCCC3)n1,3%,-0.72

# Source: ChEMBL document CHEMBL4888484, “Replenishing the malaria drug discovery pipeline: Screening and hit evaluation of the MMV Hit Generation Library 1 (HGL1) against asexual blood stage Plasmodium falciparum ,using a nano luciferase reporter read-out” (2022)
